Laboratory results from the supplement of paper PMC3334620.
In all, about 33,000 sequences were measured (“E-score (-0.5 to 0.5)”: median about -0.04, highest 2% from about 0.36 on). The list shows a part of the results.

Biological target: T1, Hmlalpha2 (UniProt P0CY09)
T1 sequence: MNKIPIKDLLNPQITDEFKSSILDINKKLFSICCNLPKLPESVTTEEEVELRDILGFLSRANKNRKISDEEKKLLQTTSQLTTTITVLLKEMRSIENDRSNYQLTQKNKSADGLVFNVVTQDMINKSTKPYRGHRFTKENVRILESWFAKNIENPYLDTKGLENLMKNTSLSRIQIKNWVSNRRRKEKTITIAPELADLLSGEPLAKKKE
Assay: PBM E-score (8-mer binding enrichment) (E-score (-0.5 to 0.5)); higher = stronger / more preferred TF binding; most listed sequences are background and not binding sites
Details: protein concentration: 200 nM; construct: GST-full length
Procedure, shortened: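 Universal all-10-mer Agilent arrays, double-stranded by primer extension on fresh or once-stripped slides, were probed with about 100-200 nM GST-tagged yeast transcription factors made by PURExpress. Fluorescent anti-GST detected bound protein, and masliner normalised the scans. E-scores from the Universal PBM Analysis Suite were given to each ungapped eight-base word pooled with its reverse complement.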

Row | Sequence | PBM E-score
1 | CGCTGAAG | -0.174
2 | ACCTACCG | -0.13
3 | AAGCTACT | 0.0935
4 | ATTCGGTG | 0.0759
5 | AGAGTCCA | -0.0748
6 | CTACCGGC | -0.231
7 | ACCTTGCG | -0.0929
8 | TTCCGGAA | 0.0484
9 | CAAAGAAA | 0.0656
10 | GACTGACA | -0.0674
11 | GACTCTCC | -0.279
12 | AAATCCGT | -0.00398
13 | GACAGAAC | -0.123
14 | ATAACCAT | 0.00846
15 | CTGCAAGA | -0.0816
16 | ACCCCATG | 0.0298
17 | CGTGCTCC | -0.164
18 | GCTCCATA | -0.219
19 | GGGAGTCA | -0.356
20 | ATTATCGG | -0.121
21 | ACCCCGGG | -0.216
22 | ACTGTACG | 0.017
23 | CAAATGGA | 0.0223
24 | AGCCTATC | -0.273
25 | CAAGCCAG | -0.0099

Row | Sequence | PBM E-score
26 | CGAGCCAG | 0.0182
27 | CCGTACAA | 0.087
28 | AATCCACC | -0.103
29 | ACACTGGT | 0.0301
30 | ATAACGTG | 0.281
31 | ACAGTTTG | -0.00642
32 | AAGCTAAA | 0.0304
33 | CAGTTGCG | -0.0715
34 | AGCGGGCA | -0.36
35 | CGGTCACC | -0.13
36 | ATTTTGAG | -0.0297
37 | TAAGTAAA | 0.269
38 | AGGAAATG | 0.0448
39 | GCGCCCCA | -0.236
40 | AACAGCTC | -0.137
41 | AACCGCCT | -0.0917
42 | AGCAGGTG | -0.00979
43 | ACGATTAT | -0.115
44 | ATGTGCAA | 0.13
45 | CACTAGCC | -0.0344
46 | ATATGAAG | -0.0366
47 | CACAAAAA | 0.165
48 | ATGTCGCC | 0.0149
49 | AAAGTTAG | 0.166
50 | GCTGGTTA | 0.0943

Row | Sequence | PBM E-score
51 | CATACCAG | -0.139
52 | ATCTGCAC | -0.0741
53 | GCTGGATA | 0.0277
54 | CATGTAGA | 0.472
55 | AGACGATG | -0.0245
56 | GACTTTCC | -0.121
57 | CGTGACAG | 0.0356
58 | CACCACAC | 0.0128
59 | ATCCGACA | 0.0939
60 | AGCGCGGG | 0.0254
61 | CAACATTG | 0.312
62 | CCGAAGCA | -0.00945
63 | AACCGTCC | -0.35
64 | ACCAGCCC | -0.1
65 | ATTAAGAG | -0.0103
66 | GATGCCAC | -0.3
67 | GGTGTATA | 0.0823
68 | ACCTTAAC | 0.0374
69 | AGTTTCGC | -0.15
70 | GATGCCTA | 0.0155
71 | GCGGTGCC | -0.169
72 | CACTAGTA | 0.0732
73 | GACTTACA | 0.274
74 | ACCTATAA | -0.029
75 | AACAGATA | 0.11

Row | Sequence | PBM E-score
76 | CTGCTGTC | -0.0801
77 | ATCGAGTC | -0.033
78 | TAAATCGA | 0.175
79 | ACCAGGCC | 0.0909
80 | GAGGAAAC | -0.0879
81 | CAGTGGGG | -0.257
82 | CCCGCTAA | -0.328
83 | CATACATC | 0.253
84 | CAAAGCCA | -0.00746
85 | GGGTACCC | -0.283
86 | CCCAGCAC | -0.275
87 | AATACTGG | -0.0805
88 | GCGTCCTA | 0.00602
89 | CCCGGCCG | -0.261
90 | CGTAAAGA | 0.333
91 | CAGACCCA | -0.102
92 | CTGCTAGA | -0.143
93 | GATTGCGA | -0.0143
94 | CATATCAG | -0.0492
95 | AGATTCTG | -0.112
96 | CGGTTGAC | 0.105
97 | ACGCCAGA | -0.0917
98 | CAAGCTAA | -0.0852
99 | AGACTCCG | -0.0955
100 | ATACGGGA | -0.0536

Row | Sequence | PBM E-score
101 | CGATTGAC | 0.233
102 | CCTATATA | 0.00021
103 | ACCCGACA | -0.0309
104 | CAACTTCG | 0.00496
105 | CTTCCTGA | -0.0268
106 | AATATTTG | 0.15
107 | AGCGTCCA | -0.0582
108 | CGCGGTGC | -0.218
109 | AAACAGTG | 0.0284
110 | ATCCACAT | 0.158
111 | AGGGGAGG | -0.299
112 | ACGGCTTA | -0.0718
113 | CGCACACC | -0.00368
114 | AGACACGA | 0.325
115 | AACTAGAG | 0.00649
116 | TGACTGAA | -0.0503
117 | ATCTACCG | -0.0724
118 | ACAATCTA | 0.171
119 | GGGATGCA | -0.349
120 | CATCTGGG | -0.15
121 | GCTTAGCC | -0.281
122 | CCGAGTGA | -0.215
123 | GACTCGCC | -0.217
124 | GATACTCA | -0.0664
125 | ACTAGAGG | -0.0709

Row | Sequence | PBM E-score
126 | GATCTAAA | -0.0243
127 | GGGAGCGA | -0.29
128 | ATCACTCA | -0.077
129 | TTAGGCAA | 0.00947
130 | CCATACGG | -0.085
131 | ACAACACG | 0.417
132 | AGATTTAT | 0.0596
133 | GGGGACGA | -0.158
134 | AACATAAA | 0.28
135 | AATTACAA | 0.436
136 | CCGGCTAA | -0.144
137 | CTGGGACA | -0.185
138 | AACGCACT | 0.206
139 | TAGCGCAA | 0.083
140 | GTAGCGCA | -0.17
141 | GCGTATTA | 0.349
142 | GGCAAGCC | -0.22
143 | AAACTTCT | 0.171
144 | AAGGACAA | 0.102
145 | AATTTGTG | 0.0268
146 | CGGCTTAG | -0.2
147 | ACTCCCTA | 0.162
148 | CCTAACAC | 0.342
149 | ACGGTCTC | -0.117
150 | AGTACGCC | -0.169

Row | Sequence | PBM E-score
151 | ATTAGTCG | -0.00776
152 | GGGTAGTA | -0.0737
153 | CACATCAG | -0.0878
154 | CCATCGCG | 0.0465
155 | GCATTTAA | 0.202
156 | GAAGTCCA | -0.173
157 | AGAAGGCA | -0.157
158 | CCGAGCAC | -0.188
159 | AGCGCCGC | -0.147
160 | GTCGTCGA | -0.0273
161 | AATGCCGA | -0.0788
162 | CACCCGAA | -0.106
163 | ACGAAATG | -0.0535
164 | GGCGAAAA | -0.00476
165 | AGCAGAGA | -0.187
166 | ACGCTGTA | 0.199
167 | ACGTAGGA | 0.141
168 | CTTTAGAA | 0.0717
169 | CTGCCGCA | -0.358
170 | CTATAATC | -0.0966
171 | GCCCAGGA | -0.11
172 | GCGGCAGC | -0.34
173 | TAACTATA | 0.159
174 | GACTAGCA | -0.0999
175 | AATCGAAT | 0.00768

Row | Sequence | PBM E-score
176 | GGAGAGAC | -0.305
177 | AGCTTGTA | 0.379
178 | ATAAAGAT | 0.18
179 | ACTTAGAC | 0.127
180 | GCCCTACA | -0.0533
181 | ACTGTAAG | 0.0573
182 | ACTTAAAT | -0.0553
183 | TATAGTGA | -0.118
184 | CGCCCACC | -0.125
185 | GTGTTAAC | 0.462
186 | TCGTAGCA | 0.161
187 | ACTTAGTC | -0.182
188 | GCATCTAA | 0.0404
189 | AGAAAGGC | -0.135
190 | CGTATAGA | 0.0477
191 | CGTCCTTC | -0.152
192 | TCTAGCAA | 0.019
193 | CACGGAAC | 0.0677
194 | CCCTATCG | -0.272
195 | ATTCCGAA | 0.0886
196 | ATGGGAAC | -0.177
197 | CATCATAG | -0.0614
198 | ATAGCGGG | -0.129
199 | CCTACCAC | -0.263
200 | GGACACAA | 0.168

Row | Sequence | PBM E-score
201 | CAGTCGCG | -0.168
202 | ATCACTGG | -0.0104
203 | CACGTTTC | 0.0339
204 | ATGCTCAA | -0.109
205 | ATCTTGCG | -0.116
206 | ACGCAGTA | 0.142
207 | CCGTGAGA | -0.277
208 | CTCTGCTA | -0.158
209 | GGATGTCA | 0.133
210 | ACGCGGAC | 0.198
211 | CTTGTAGC | 0.16
212 | CCACGCCA | -0.0592
213 | GCTGGTAC | -0.136
214 | AGCCCCCT | -0.331
215 | GTCGTAGA | -0.0441
216 | CATCCAGA | -0.157
217 | ACTAGCAA | 0.106
218 | CGTGGTGA | -0.0179
219 | CCACACAA | -0.0216
